{"source": "paper PMC4336329", "about": "(PLoS ONE, 2015)", "note": "About 2,200 (0.71%) of roughly 310,000 compounds showed an effect of 50% or more. Effects have a minus sign here. This is one part of the list.", "data": [{"biological_target": "human ether-à-go-go-related gene (hERG) potassium channel (human, UniProt Q12809)", "sequence (Q12809 whole entry, looked up)": "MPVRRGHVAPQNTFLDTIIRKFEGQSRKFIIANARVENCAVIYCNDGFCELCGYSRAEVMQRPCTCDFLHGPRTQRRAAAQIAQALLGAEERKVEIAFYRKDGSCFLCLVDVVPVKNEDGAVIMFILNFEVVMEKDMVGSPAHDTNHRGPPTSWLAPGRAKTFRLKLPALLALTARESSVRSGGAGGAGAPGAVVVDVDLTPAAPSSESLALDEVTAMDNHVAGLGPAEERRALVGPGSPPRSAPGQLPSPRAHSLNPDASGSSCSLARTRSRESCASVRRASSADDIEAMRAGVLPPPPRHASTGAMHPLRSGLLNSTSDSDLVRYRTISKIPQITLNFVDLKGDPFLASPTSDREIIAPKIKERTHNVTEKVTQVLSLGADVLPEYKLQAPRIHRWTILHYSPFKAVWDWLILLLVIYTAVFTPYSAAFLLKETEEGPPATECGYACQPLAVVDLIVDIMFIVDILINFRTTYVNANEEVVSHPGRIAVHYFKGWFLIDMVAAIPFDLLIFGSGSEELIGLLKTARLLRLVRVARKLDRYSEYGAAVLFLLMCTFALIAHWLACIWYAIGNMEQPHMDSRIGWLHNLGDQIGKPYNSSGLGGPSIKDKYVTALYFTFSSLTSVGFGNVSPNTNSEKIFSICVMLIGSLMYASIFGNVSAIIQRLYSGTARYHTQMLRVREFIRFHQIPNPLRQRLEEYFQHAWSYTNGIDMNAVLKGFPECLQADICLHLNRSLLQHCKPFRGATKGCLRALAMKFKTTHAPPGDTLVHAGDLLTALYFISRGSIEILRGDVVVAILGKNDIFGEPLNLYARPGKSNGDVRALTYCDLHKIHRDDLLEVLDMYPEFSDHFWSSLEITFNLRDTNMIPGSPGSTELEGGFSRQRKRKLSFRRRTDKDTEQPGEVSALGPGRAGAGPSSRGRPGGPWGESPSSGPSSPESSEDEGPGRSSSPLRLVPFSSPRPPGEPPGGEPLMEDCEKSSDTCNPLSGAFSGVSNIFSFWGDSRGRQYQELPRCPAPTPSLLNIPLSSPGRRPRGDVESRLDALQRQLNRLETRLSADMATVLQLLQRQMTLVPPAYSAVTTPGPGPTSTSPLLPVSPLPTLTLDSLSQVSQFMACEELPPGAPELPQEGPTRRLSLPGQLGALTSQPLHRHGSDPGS", "experiment": "primary screen, population patch clamp on CHO cells stably expressing hERG", "units": {"hERG current change (%, negative = inhibition) at 1uM": "%"}, "values": [{"smiles": "Cn1c(Cn2c(=O)sc3ccccc32)nnc1SCc1cccnc1", "hERG current change (%, negative = inhibition) at 1uM": -5.97}, {"smiles": "O=C(Cc1ccc(O)cc1)NC1CCCCCC1", "hERG current change (%, negative = inhibition) at 1uM": 15.4}, {"smiles": "COc1ccc(N(CC(=O)NCCSc2ccccn2)S(C)(=O)=O)cc1", "hERG current change (%, negative = inhibition) at 1uM": 6.95}, {"smiles": "COc1ccc(N2C(=O)CC(NC34CC5CC(CC(C5)C3)C4)C2=O)c(OC)c1", "note": "(centres unmarked)", "hERG current change (%, negative = inhibition) at 1uM": 8.85}, {"smiles": "COc1ccccc1CC(=O)NCCc1ccc(S(N)(=O)=O)cc1", "hERG current change (%, negative = inhibition) at 1uM": 10.5}, {"smiles": "N#CNC(N)=Nc1cccc(Cl)c1", "hERG current change (%, negative = inhibition) at 1uM": 16.4}, {"smiles": "NC(N)=N/N=C/c1cccc([N+](=O)[O-])c1O", "hERG current change (%, negative = inhibition) at 1uM": 22.1}, {"smiles": "Cc1sc2ncnc(N3CCN(S(=O)(=O)c4ccc(F)cc4)CC3)c2c1C", "hERG current change (%, negative = inhibition) at 1uM": -2.36}, {"smiles": "c1ccc2nc(-c3nc4ccccc4o3)ccc2c1", "hERG current change (%, negative = inhibition) at 1uM": 7.46}, {"smiles": "Cc1sc(NC(=O)/C=C/c2ccco2)c(C(=O)OC(C)C)c1C", "hERG current change (%, negative = inhibition) at 1uM": 3.03}, {"smiles": "COc1ccc2c(c1)c1nc(SCC(C)C)n(CCO)c(=O)c1n2C", "hERG current change (%, negative = inhibition) at 1uM": 9.29}, {"smiles": "CS(=O)(=O)N(Cc1ccc(Cl)cc1)c1ccc(C(=O)NCCSCc2ccco2)cc1", "hERG current change (%, negative = inhibition) at 1uM": 3.78}, {"smiles": "CSc1ncccc1C(=O)OCC(=O)N(C)c1c(N)n(Cc2ccccc2)c(=O)[nH]c1=O", "hERG current change (%, negative = inhibition) at 1uM": -16.3}, {"smiles": "CCN1CCN(C(=O)CCc2nnc(CCc3c[nH]c4ccccc34)o2)[C@@H](C)C1=O", "hERG current change (%, negative = inhibition) at 1uM": -0.692}, {"smiles": "O=C(c1ccco1)n1nc(-c2ccc(Cl)cc2)nc1NCc1ccco1", "hERG current change (%, negative = inhibition) at 1uM": 11.8}, {"smiles": "O=C1c2cccc3cc(Br)cc(c23)C(=O)N1Nc1ccc(Br)cc1", "hERG current change (%, negative = inhibition) at 1uM": 11.9}, {"smiles": "O=C(Nc1cccc2cccnc12)c1ccc(Br)cc1Br", "hERG current change (%, negative = inhibition) at 1uM": 17.3}, {"smiles": "CC/C(=N\\N1CCCCC1)c1c(O)[nH]c(=O)[nH]c1=O", "hERG current change (%, negative = inhibition) at 1uM": 12.7}, {"smiles": "FC(F)(F)c1ccc(N2CCOCC2)c(Nc2nc3ccccc3n3cnnc23)c1", "hERG current change (%, negative = inhibition) at 1uM": 8.14}, {"smiles": "Cc1nn(Cc2ccc(F)cc2)c(C)c1NC(=O)c1cc2ncc(Br)cn2n1", "hERG current change (%, negative = inhibition) at 1uM": 10}, {"smiles": "O=C(Nc1c(Cl)cccc1Cl)C1CCN(C(=O)c2cccs2)CC1", "hERG current change (%, negative = inhibition) at 1uM": 10.4}, {"smiles": "CCc1cccc(CC)c1NC(=O)CCCSc1nc2ccccc2s1", "hERG current change (%, negative = inhibition) at 1uM": 12.6}, {"smiles": "COc1cccc(NC(=O)CN(C)CC(=O)NC(C)c2ccccc2)c1", "note": "(centres unmarked)", "hERG current change (%, negative = inhibition) at 1uM": 1.71}, {"smiles": "CC(=O)c1ccc(S(=O)(=O)N2CCC(NC(=O)Nc3cccc(F)c3)CC2)cc1", "hERG current change (%, negative = inhibition) at 1uM": 10.7}, {"smiles": "CCNC(=O)C12CCC(C)(C(=O)O1)C2(C)C", "note": "(centres unmarked)", "hERG current change (%, negative = inhibition) at 1uM": 12.2}, {"smiles": "C/C(=N\\NC(=O)CNC(=O)c1cccs1)c1ccc(Cl)c(Cl)c1", "hERG current change (%, negative = inhibition) at 1uM": 13.8}, {"smiles": "CCC(C)SCc1nc2ccccc2[nH]1", "note": "(centres unmarked)", "hERG current change (%, negative = inhibition) at 1uM": 2.06}, {"smiles": "Cc1ccc(NC(=O)CSC2=NN3CCCC(=O)N=C3S2)cc1Cl", "hERG current change (%, negative = inhibition) at 1uM": 0.817}, {"smiles": "CCOC(=O)C1(Cc2ccc(Cl)cc2)CCN(CCCn2cccn2)CC1", "hERG current change (%, negative = inhibition) at 1uM": -77}, {"smiles": "O=C(CSc1nc(-c2ccccc2)cc(=O)[nH]1)Nc1ccccc1F", "hERG current change (%, negative = inhibition) at 1uM": 16.8}, {"smiles": "COc1ccc(CCNC(=O)c2nnn(-c3cccc(C)c3)c2N)cc1OC", "hERG current change (%, negative = inhibition) at 1uM": -12.2}, {"smiles": "COc1ccc(-c2noc(N3CCC(C(=O)Nc4ccc(OC)c(OC)c4)CC3)n2)cc1", "hERG current change (%, negative = inhibition) at 1uM": 1.78}, {"smiles": "COc1ccc(CN(C)C(=O)c2ccc3ccccc3n2)cc1F", "hERG current change (%, negative = inhibition) at 1uM": 8.73}, {"smiles": "O=C(c1ccccc1)c1ccc(OCC(O)CN2CCN(Cc3ccccc3)CC2)cc1", "note": "(centres unmarked)", "hERG current change (%, negative = inhibition) at 1uM": -39.8}, {"smiles": "Cc1cc(NC(=O)c2c(Cl)cccc2Cl)no1", "hERG current change (%, negative = inhibition) at 1uM": 13.6}, {"smiles": "CCN(CC)C(=O)c1sc(NC(=O)c2ccc(Br)o2)c(C(=O)OC)c1C", "hERG current change (%, negative = inhibition) at 1uM": 1.7}, {"smiles": "C#C[C@@]1(O)CCC2C3CCC4=C/C(=N/OCC(=O)NC(C(=O)NC(CC(C)C)C(=O)O)C(C)C)CC[C@]4(C)C3CC[C@@]21C", "note": "(some centres unmarked)", "hERG current change (%, negative = inhibition) at 1uM": 10.4}, {"smiles": "Cc1nc2ccccc2c(=O)n1Nc1cccc(Cl)c1", "hERG current change (%, negative = inhibition) at 1uM": 1.73}, {"smiles": "Cc1cccc(OCc2nnc(SCC(=O)Nc3cc(C)on3)n2C)c1", "hERG current change (%, negative = inhibition) at 1uM": -0.576}, {"smiles": "Cc1ccc(NC(=O)COC(=O)C2CCN(c3ccc(C(F)(F)F)cn3)CC2)cc1C", "hERG current change (%, negative = inhibition) at 1uM": 14.8}, {"smiles": "CCOc1ccc(NC(=O)C2CCCN(c3nn4c(=O)cc(C)nc4s3)C2)cc1", "note": "(centres unmarked)", "hERG current change (%, negative = inhibition) at 1uM": 11.9}, {"smiles": "Cc1c(C(=O)NN)nn(-c2ccc(Cl)cc2)c(=O)c1C#N", "hERG current change (%, negative = inhibition) at 1uM": 11.6}, {"smiles": "CCc1ccc(NC(=S)NC2CC3CCCC(C2)N3Cc2ccccc2)cc1", "note": "(centres unmarked)", "hERG current change (%, negative = inhibition) at 1uM": -30}, {"smiles": "Cc1ccc(NC(=O)C(C)OC(=O)CCNS(=O)(=O)c2ccc(C)cc2)cc1", "note": "(centres unmarked)", "hERG current change (%, negative = inhibition) at 1uM": 3.63}, {"smiles": "COc1ccc(Cl)cc1-c1nc(SCC(N)=O)n[nH]1", "hERG current change (%, negative = inhibition) at 1uM": 10.2}, {"smiles": "S=C(NC1CC1)N1CCN(C(=S)NC2CC2)CC1", "hERG current change (%, negative = inhibition) at 1uM": 15.6}, {"smiles": "Nc1ccccc1C(=O)OCC(=O)c1ccc2c(c1)OCCO2", "hERG current change (%, negative = inhibition) at 1uM": 12.4}, {"smiles": "COc1ccc(C2C(C(=O)c3ccco3)=C(O)C(=O)N2CCN2CCOCC2)c(OC)c1", "note": "(centres unmarked)", "hERG current change (%, negative = inhibition) at 1uM": 19.1}, {"smiles": "CCCS(=O)(=O)N1CCC(C(=O)Oc2ccc(OC)cc2)CC1", "hERG current change (%, negative = inhibition) at 1uM": 19.3}, {"smiles": "Cn1c(=O)c2c(nc(CN3CCC(C(N)=O)CC3)n2CCc2ccccc2)n(C)c1=O", "hERG current change (%, negative = inhibition) at 1uM": 8.7}, {"smiles": "CCN(CC)CC(=O)Nc1ccc(C)cc1Br", "hERG current change (%, negative = inhibition) at 1uM": 10.8}, {"smiles": "c1ccc2c(Cn3ccnc3)c[nH]c2c1", "hERG current change (%, negative = inhibition) at 1uM": 9.33}, {"smiles": "CCN(CC)S(=O)(=O)c1cc(C(=O)OCC(=O)Nc2ccc(-c3nc4ccc(C)cc4s3)cc2)ccc1F", "hERG current change (%, negative = inhibition) at 1uM": 11.4}, {"smiles": "COc1ccc(C(=O)N2CCc3cc(OC)c(OC)cc3C2)cc1OC", "hERG current change (%, negative = inhibition) at 1uM": 1.85}, {"smiles": "CC1(NC(=O)CSc2nnc(-c3c[nH]c4ccccc34)n2C2CC2)CCS(=O)(=O)C1", "note": "(centres unmarked)", "hERG current change (%, negative = inhibition) at 1uM": 8.77}, {"smiles": "C/C=C/c1ccc(OCC(=O)Nc2cc(S(=O)(=O)N3CCOCC3)ccc2N2CCCC2)c(OC)c1", "hERG current change (%, negative = inhibition) at 1uM": 15.1}]}]}
